# Assay results published in PubChem BioAssay AID1347120 (National Center for Advancing Translational Sciences (NCATS), 2019).
# The campaign covered roughly 390,000 compounds. About 930 (0.24%) were called active. Inconclusive means that the source gave no clear call. Such entries were picked first, then a sample of the others. The call rests on the fitted dose curve; in most records, active means well fitted activation curve with a large enough effect; inconclusive means small, poorly fitted or top-dose-only effect; inactive means no such curve, though single readings can be large or run the other way. Where the call is inconclusive, the potency comes from a doubtful curve fit.
# Assay: qHTS for Suppressors of FUS Proteinopathy: Primary screen using FUS-linked yeast assay; further: nearly all actives have a fitted effect of over 55% in size;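 on growth rescue (activation): plate controls were DMSO vehicle for no effect and reference control for full effect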
# Conditions: S. cerevisiae FUS-expressing, OD600, 24 h; Potency: growth rescue; growth rescue (activation): at 76.6 µM (top of the series)
# Method in brief: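 Absorbance at 600 nm, taken 24hr after compound addition, measured rescue of FUS-yeast growth at 30C. Induction used 2% galactose with seeding at OD 0.005. Controls: CP55940 from 92uM final, DMSO only.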
# Potency means the concentration at half of the fitted maximal effect; tags describe the fitted curve by direction and shape.
Structure (SMILES),Potency,growth rescue (activation)
COc1ccc(CN(C)C(=O)COC(=O)c2c(-c3ccccc3Cl)noc2C)cc1,"inconclusive: 14.1 µM [activator, partial curve, poor fit]",–
Cc1cccc(NC(=O)CC(C)(C)C)c1,"inconclusive: 31.6 µM [activator, single point]",–
Cc1cc(C)n(CCC(=O)N/N=C/c2c(O)ccc3ccccc23)n1,"inconclusive: 35.5 µM [activator, single point]",–
Cc1ccc2cc(CN(CCCO)S(=O)(=O)c3cccc4nsnc34)c(=O)[nH]c2c1C,–,inconclusive: 17.6% [activator]
COc1ccc(-c2c(C)[nH]n3c(=O)c(Cc4ccccc4)c(C)nc23)cc1OC,"inconclusive: 39.8 µM [activator, single point]",–
COC(=O)[C@@]12C[C@@H](CC(=O)N3CCSCC3)C(=O)N(Cc3cccc4ccccc34)C1=CCC(C)(C)C2,"inconclusive: 35.5 µM [activator, single point]",–
CCCc1nnc(NC(=O)Cc2coc3c(C)c(C)ccc23)s1,–,inactive: -12.7%
O=C(Cc1ccc(F)cc1)N1CCC(CC2CC(c3ccc(Cl)cc3)=NO2)(C(=O)NCC2CCCCC2)CC1 (stereo not drawn),"inconclusive: 25.1 µM [activator, single point]",–
O=C(CCl)N1N=C(c2cccs2)CC1c1ccco1 (stereo not drawn),–,inactive: 9.34%
O=S(=O)(c1ccc(-c2csc(=Nc3ccc(F)cc3)n2CCCCCCO)cc1)N1CCCC1,"inconclusive: 31.6 µM [activator, partial curve]",–
CC(=O)N1CCc2cc(S(=O)(=O)NCC(=O)NCc3ccccc3Cl)ccc21,–,inactive: -1.39%
O=C(COCc1cc(-c2cccs2)on1)NCc1ccc(F)cc1,–,inactive: -12.6%
Cc1ccc(Cl)cc1N1CCN(S(=O)(=O)c2ccc3c(c2)C(C(C)C)C(=O)N3)CC1 (stereo not drawn),"inconclusive: 50.1 µM [activator, single point]",–
Oc1ccc(N2CCN(C(c3cccs3)c3nnnn3CCc3ccccc3)CC2)cc1 (stereo not drawn),"inconclusive: 15.8 µM [activator, partial curve, poor fit]",–
CC(C)c1ccc(NC(=O)N2CCOCC2)cc1,–,inactive: -15.5%
CCOC(=O)[C@]12CCCC3=C1N(CCC3)C(=O)[C@@H](CC(=O)N1CCC(c3ccccc3)CC1)C2,–,inactive: 25%
Cn1ccc2c(-c3ccc(C(N)=O)cc3)cc3c(c21)C1CCC3O1 (stereo not drawn),–,inactive: -6.76%
CC(C)[C@H](NS(=O)(=O)c1cccc(C(F)(F)F)c1)C(=O)OCC(=O)NC(=O)NCc1ccco1,"inconclusive: 22.4 µM [activator, partial curve]",–
Cc1ccc(S(=O)(=O)N2CCC(=O)N([C@H](COCc3cccc(C(F)(F)F)c3)C(C)C)CC2)cc1,"inconclusive: 15.8 µM [activator, single point]",–
CC(C)COc1ccc(C(=O)Nc2nnc(S(=O)(=O)N(C)Cc3ccco3)s2)cc1,–,inactive: 13.3%
CCc1ccccc1Nc1ncnc2c1cnn2-c1ccc(C)cc1C,"inconclusive: 25.1 µM [activator, partial curve, poor fit]",–
CCc1cccc(NC(c2ccccc2)c2nnc(-c3ccccc3F)o2)c1 (stereo not drawn),"inconclusive: 31.6 µM [activator, single point]",–

Structure (SMILES),Potency,growth rescue (activation)
COCCN=c1scc(-c2cc(OC)c(OC)c(OC)c2)n1/N=C/c1c(C)[nH]c2ccccc12,active: 12.6 µM,–
CCOC(=O)C1CCN(C(=O)c2cn(CCOC)c(=O)c3c2c2ccccc2n3C)CC1,–,inactive: 27.8%
COc1ccc(/C=C/C(=O)Oc2ccc(C)c(C)c2)cc1OC,"inconclusive: 56.2 µM [activator, partial curve, poor fit]",–
Cc1csc(NC(=O)CSCC(=O)Nc2ccccc2)n1,–,inactive: -22.9%
O=c1[nH]nc2c3ccccc3cnn12,–,inactive: -11.6%
O=c1[nH]c2cc3c(cc2cc1C(c1nnnn1C1CCCCC1)N1CCSCC1)OCCO3 (stereo not drawn),"inconclusive: 6.31 µM [activator, partial curve, poor fit]",–
COc1ccc(NC(=O)/C=C/c2ccccc2)c([N+](=O)[O-])c1,–,inactive: -16.1%
COc1ccc(C(C(O)C(=O)c2c[nH]c3ccccc23)N2CCN(c3ccc(OC)cc3)CC2)cc1 (stereo not drawn),"inconclusive: 12.6 µM [activator, partial curve]",–
COc1ccc(-c2sc3cc(OC)c(OC)cc3c2C#CC2(O)CCCCC2)cc1,"inconclusive: 31.6 µM [activator, single point]",–
CCOC(=O)c1sc(N(Cc2ccccc2)C(=O)CSc2ncn[nH]2)nc1C,"inconclusive: 3.16 µM [activator, partial curve, poor fit]",–
CN(C)CCCN(C(=O)c1ccc(S(=O)(=O)N2CCc3ccccc3C2)cc1)c1nc2ccc(F)cc2s1,"inconclusive: 44.7 µM [activator, single point]",–
Cc1cnc(NC(=O)COc2ccccc2)s1,–,inconclusive: 72.3% [activator]
CCOC(=O)C1CCN(C(=O)c2ccc3c(c2)sc2nc(-c4ccc(OC)cc4)cn23)CC1,"inconclusive: 22.4 µM [activator, partial curve, poor fit]",–
CC(C)C(C)(C#N)NC(=O)CSc1ncnc2sc(-c3ccccc3)cc12 (stereo not drawn),"inconclusive: 50.1 µM [activator, single point]",–
O=C(N/N=C/c1ccccc1Cl)c1ccncc1,–,inactive: -15.5%
COc1ccccc1S(=O)(=O)Cc1ccc(C(=O)N2CCN(c3ccccc3)CC2)o1,"inconclusive: 11.2 µM [activator, single point]",–
CCOCCCNC(=O)c1ccc(Cn2c(=O)c3cccn3c3cccnc32)cc1,–,inactive: -24.4%
Fc1cccc(Cc2c(-c3cccc(Cl)c3)nc3c4ccccc4ccn23)c1,–,inactive: 9.82%
COC(=O)c1ccc(CSc2nnc(-c3c[nH]c4ccccc34)n2-c2ccccc2)cc1,–,inactive: 35.1%
COc1ccc(CCC(=O)N2c3ccccc3N=C(c3ccc(C(F)(F)F)cc3)C2C(=O)NC2CCCC2)cc1 (stereo not drawn),"inconclusive: 11.2 µM [activator, partial curve]",–
Cc1ccc(-c2cc(-c3nnc(SCC(=O)N4c5ccccc5Sc5ccc(Cl)cc54)n3N)[nH]n2)cc1,"inconclusive: 25.1 µM [activator, partial curve]",–
